Our source for the EC50 values is patent US20050282752A1 (published 2005).

For this assay, the target named is T1, biotinylated human IL-1RI (human, UniProt P14778 18-336, biotinylated).
T1 chain: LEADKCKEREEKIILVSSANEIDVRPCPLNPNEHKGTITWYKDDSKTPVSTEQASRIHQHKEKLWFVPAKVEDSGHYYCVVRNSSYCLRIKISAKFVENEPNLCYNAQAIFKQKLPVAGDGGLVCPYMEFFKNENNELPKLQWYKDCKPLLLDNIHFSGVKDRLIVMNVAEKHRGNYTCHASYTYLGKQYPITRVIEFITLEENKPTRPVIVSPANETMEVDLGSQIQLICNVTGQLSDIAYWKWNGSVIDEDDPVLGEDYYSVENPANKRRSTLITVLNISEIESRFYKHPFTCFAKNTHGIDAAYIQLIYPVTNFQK
Description: IGEN (ECL) competition, inhibition of IL-1 signaling complex formation.

B1: IL-1ra wild-type protein (human recombinant interleukin-1 receptor antagonist having the sequence of SEQ ID NO: 5) (ligand)
chain: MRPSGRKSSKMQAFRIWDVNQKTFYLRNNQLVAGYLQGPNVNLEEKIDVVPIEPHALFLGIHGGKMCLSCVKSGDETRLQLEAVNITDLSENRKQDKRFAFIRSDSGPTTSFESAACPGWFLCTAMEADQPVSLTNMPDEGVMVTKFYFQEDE
Take B1: the midpoint of the response, the EC50, lay at 0.712 nM. This lies in the sub-nanomolar range.

B2: IL-1ra R97D mutant protein (ligand)
chain: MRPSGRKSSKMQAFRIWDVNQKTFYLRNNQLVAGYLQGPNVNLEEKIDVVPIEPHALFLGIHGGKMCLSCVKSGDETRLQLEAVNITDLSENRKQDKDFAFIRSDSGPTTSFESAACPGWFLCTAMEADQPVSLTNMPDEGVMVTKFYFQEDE
Regarding B2, the EC50 – broadly, the concentration that produces a half-maximal response – came out at 0.902 nM.
